Data as given in PMC7819943, “Rice protein-binding microarrays: a tool to detect cis-acting elements near promoter regions in rice”.
The list shows a part of the results.

Target: T1, OsWOX13 (Oryza sativa, UniProt Q5QMM3 1-267)
T1 sequence: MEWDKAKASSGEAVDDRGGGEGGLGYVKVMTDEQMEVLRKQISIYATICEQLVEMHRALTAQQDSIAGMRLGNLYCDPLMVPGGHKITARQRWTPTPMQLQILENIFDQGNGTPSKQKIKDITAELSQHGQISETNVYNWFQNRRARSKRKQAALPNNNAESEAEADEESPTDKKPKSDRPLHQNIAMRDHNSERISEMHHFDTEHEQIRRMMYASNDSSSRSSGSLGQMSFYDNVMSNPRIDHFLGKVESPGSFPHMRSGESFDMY
Experiment: protein-binding microarray (RPBM); PBS, 2% BSA, 51.3 ng/ul salmon testes DNA, 50 uM zinc acetate, 200 nM TF, 25 C, 1 h; high values mean tight binding
Conditions: protein: recombinant; tags: N-terminal polyhistidine and DsRed monomer fusion (pET32a); label: CyDye5-dUTP incorporated in the synthesized complementary strand; 3' TTTTT single-stranded linker to array surface; dsDNA, one strand shown
How it was run: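 Binding signal is reported as fluorescence intensity per feature (arbitrary units) from an Axon 4000B scanner. Incubation used 200 nM of each Ni–NTA-purified, N-terminally polyhistidine- and DsRed-fused transcription factor from E. coli BL21-CodonPlus on a double-stranded custom Agilent array for 1 h at 25 °C, with 50 µM zinc acetate in the buffer, followed by washing.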

Sequence	binding signal
CCGAATTGGCATATTAATGGGCTAATTACGTACGTCGACCCGGAGTCACCTAGTGCAG	39000 fluorescence intensity (a.u.)
TATAATGTGATTACATTATTATAATTTACATGTAACTACACGGAGTCACCTAGTGCAG	37600 fluorescence intensity (a.u.)
GTCGCCTGATTGAGCGCTTCATGATCTTGACTTCTCAACTCGGAGTCACCTAGTGCAG	26400 fluorescence intensity (a.u.)
TTTTAACTGATTAATCTGAAATGTTCGATGTGAAACAGGACGGAGTCACCTAGTGCAG	40000 fluorescence intensity (a.u.)
TGTCTGACTGACTGACTGGCTGCTGCTGCTGCTCATTCCTCGGAGTCACCTAGTGCAG	23800 fluorescence intensity (a.u.)
GTTTTAATTAAGATAATGGAAGATGTAGGAAAGATACTAGCGGAGTCACCTAGTGCAG	15800 fluorescence intensity (a.u.)
TGATGTGATTTATCGACTAAGCCAACAAAGCTTAGCATGTCGGAGTCACCTAGTGCAG	11900 fluorescence intensity (a.u.)
TAAATTGGTGAATGTACTGTGATAGCCAGCTATTAAACTACGGAGTCACCTAGTGCAG	12100 fluorescence intensity (a.u.)
CCTAACTAATCACTGGGGTCAGCTCTTAAACTGCTAAGGCCGGAGTCACCTAGTGCAG	17000 fluorescence intensity (a.u.)
AAAGTGACTGAATTTTAAGTCATCGGAAATTTACACGCTCCGGAGTCACCTAGTGCAG	15400 fluorescence intensity (a.u.)
AGACGAATTTATTAAGCCTAATTAATCCATCATTACCAAACGGAGTCACCTAGTGCAG	5540 fluorescence intensity (a.u.)
AATAACATTCATTGAAATAAATTAAAATCCTAAACTACATCGGAGTCACCTAGTGCAG	4420 fluorescence intensity (a.u.)
ATTAAAGATAATTAAATCAAAATGGATAGCCACATACAAGCGGAGTCACCTAGTGCAG	14800 fluorescence intensity (a.u.)
CTATCCCCAATCAATCACAAGAACATTATAAAACTCCTAGCGGAGTCACCTAGTGCAG	18100 fluorescence intensity (a.u.)
CTCTAATGAATGTGCATGTTATGTTTCCAAATCTCACTAGCGGAGTCACCTAGTGCAG	3850 fluorescence intensity (a.u.)
CAGGATTGACTATCCGTGTTGGATGGATTGAGCGGAGACCCGGAGTCACCTAGTGCAG	35600 fluorescence intensity (a.u.)
ACTAAATTGAGACAGCAGTACTTAATTCCTGCATGCGCACCGGAGTCACCTAGTGCAG	45800 fluorescence intensity (a.u.)
ACGCCGACGATCAATTAAGATGGAGGACAAGCTGATACTGCGGAGTCACCTAGTGCAG	6630 fluorescence intensity (a.u.)
GTACTTAAATTGCAGTGTACATATTTAGCAGAGTTAGCATCGGAGTCACCTAGTGCAG	6060 fluorescence intensity (a.u.)
CTTCAAATTAATCTACGTTTAATACTTCAAATGTGTTTCCCGGAGTCACCTAGTGCAG	6670 fluorescence intensity (a.u.)
AACACTATGATCTAAGTATAATTAGTAATTTAGTATACTACGGAGTCACCTAGTGCAG	5480 fluorescence intensity (a.u.)

Sequence	binding signal
GTAAATTTAAAATCCGTTCTCTATACGGGCTTGTGCCGCCCGGAGTCACCTAGTGCAG	11000 fluorescence intensity (a.u.)
TACAATTTACCTTAATTACACTCCCGACCTCTGCATAACTCGGAGTCACCTAGTGCAG	11500 fluorescence intensity (a.u.)
CACGTGAAATTAATTATCTTAATATGAATAGGAAGTGCAACGGAGTCACCTAGTGCAG	20000 fluorescence intensity (a.u.)
TAATCACGGACTAATTAGGCTTAAAAGATTCGTCTCGCGACGGAGTCACCTAGTGCAG	9940 fluorescence intensity (a.u.)
TAAGCCTAATTAATCCATCATTAGCAAATATTTACTGTAGCGGAGTCACCTAGTGCAG	14100 fluorescence intensity (a.u.)
GTTTAATTAACTGCACATGTTGAATAACAATCCTGTCATTCGGAGTCACCTAGTGCAG	40800 fluorescence intensity (a.u.)
GGCAGCAAGACCAATTTTAATTGAAGACCACGGAAGGAGCCGGAGTCACCTAGTGCAG	3450 fluorescence intensity (a.u.)
ACACGTGATTATAGTAAGATTAATTAAGTAACGCAAACAACGGAGTCACCTAGTGCAG	20300 fluorescence intensity (a.u.)
TTCTGCTGATTGGAATGACTACAACACTAGAGTTGTCTGTCGGAGTCACCTAGTGCAG	56100 fluorescence intensity (a.u.)
ACCGCCAATTACTTCCACCTTTATAAATAGCCTCCTCCCTCGGAGTCACCTAGTGCAG	5880 fluorescence intensity (a.u.)
ACTTGTATATTGATGAAATCTGTCATCTCCAAACGAAATGCGGAGTCACCTAGTGCAG	5530 fluorescence intensity (a.u.)
AAATTCCTATTACAAGCTGGTAATTGAGTTGCTGGTACGCCGGAGTCACCTAGTGCAG	5340 fluorescence intensity (a.u.)
CAAATTATCAGTCCATTACCAGAGGGATTAACTGAACAGGCGGAGTCACCTAGTGCAG	14500 fluorescence intensity (a.u.)
ACATAATTAGTTTATCTCTCCTCAAGCTGGTGCATCTCTCCGGAGTCACCTAGTGCAG	31200 fluorescence intensity (a.u.)
GCATAACTGCACTAAACTACAACTTCTCCTACACCGTCAACGGAGTCACCTAGTGCAG	4860 fluorescence intensity (a.u.)
GAATACAAATTTAGTTTAACATAGTGCCGAGCCAATATGGCGGAGTCACCTAGTGCAG	4740 fluorescence intensity (a.u.)
AGGATTAAATCAAATCAAGCCGTCTCGCCTTGGGGTTTCCCGGAGTCACCTAGTGCAG	8010 fluorescence intensity (a.u.)
AGTTAATAGATTCAACGGTTGGATTAAAGTTGTACTACACCGGAGTCACCTAGTGCAG	14000 fluorescence intensity (a.u.)
GGTAATTTGGGTACAGATAGTACTCTGTTGCACCAATCTGCGGAGTCACCTAGTGCAG	12600 fluorescence intensity (a.u.)
TGTCAATATGGGTGAATTGACATGCTATGATCAGGCAAAGCGGAGTCACCTAGTGCAG	9900 fluorescence intensity (a.u.)
ACAATAATTCTGAAGTAATTAGGAGTACGACTCTCGTCCCCGGAGTCACCTAGTGCAG	13900 fluorescence intensity (a.u.)

Sequence	binding signal
AATTTCTGATTGTTTGTCAGTTCAGCGTTGATGCTGTAATCGGAGTCACCTAGTGCAG	16400 fluorescence intensity (a.u.)
TTGTTGACAATCACGATTCATGACAAAAGAAGATTGAGAGCGGAGTCACCTAGTGCAG	13600 fluorescence intensity (a.u.)
ATTAATTTAAGGAGTTAATTTATTAGGTGAAAATTCCTTACGGAGTCACCTAGTGCAG	20200 fluorescence intensity (a.u.)
TAGTTAATTTAATATAGTCAATTCATACAATAGCTACCTACGGAGTCACCTAGTGCAG	19500 fluorescence intensity (a.u.)
ACTCAAACTTGATATGGGTTAATTAGATCAACAAATTATGCGGAGTCACCTAGTGCAG	8160 fluorescence intensity (a.u.)
ACCCTCCTTAATTATTACGGTCGACCATATTACCCTCCTACGGAGTCACCTAGTGCAG	7940 fluorescence intensity (a.u.)
TGATCTAGAATTAAATTGATTGCCATTATAATGGGATCTCCGGAGTCACCTAGTGCAG	37900 fluorescence intensity (a.u.)
TCATGAAATTAATAGGATGCCACGTCGACTTGGTTGTTCCCGGAGTCACCTAGTGCAG	3510 fluorescence intensity (a.u.)
TATTGTAAATCTACAGGTGTAAGGTGGCGTATCATAAGATCGGAGTCACCTAGTGCAG	3640 fluorescence intensity (a.u.)
TGGTAAATTTCCAATTACAAACGCGATCACATACAGTCGACGGAGTCACCTAGTGCAG	29300 fluorescence intensity (a.u.)
GGAAAATAAATTATTAAATGGAATGATAAAAGAAAACAGGCGGAGTCACCTAGTGCAG	21200 fluorescence intensity (a.u.)
TCAGATCTTGAATCAATTAGCTACTGCTGTTGTGAAATTGCGGAGTCACCTAGTGCAG	7150 fluorescence intensity (a.u.)
ATCAAATTTATATATGAAAATAACATTATTTATAACACCACGGAGTCACCTAGTGCAG	5450 fluorescence intensity (a.u.)
CATAAATTTCTTACTCATGAAAACACACTCCCCTTCTTTTCGGAGTCACCTAGTGCAG	4600 fluorescence intensity (a.u.)
ACTAAATAAATAATTCCATGTCGATTATGACACTTGAGTTCGGAGTCACCTAGTGCAG	3800 fluorescence intensity (a.u.)
TTTCAAATTAAATGGCATTGTTTTGTAGTTATATAATGGACGGAGTCACCTAGTGCAG	11100 fluorescence intensity (a.u.)
AGAATTAAAACTCAATCAATCATACGTTAATAGCATATTGCGGAGTCACCTAGTGCAG	31800 fluorescence intensity (a.u.)
GCCTAACATGTATTGACCAAATAATCATATTTGGTAGGCACGGAGTCACCTAGTGCAG	5620 fluorescence intensity (a.u.)
ACCTTTTGTTAACATGTTTACTGATTGTAGATGTGGGACTCGGAGTCACCTAGTGCAG	11900 fluorescence intensity (a.u.)
ACCCTGCGGATTAACAGAGTAAACTGCAACAAACCACGCGCGGAGTCACCTAGTGCAG	3640 fluorescence intensity (a.u.)
CATCAATTGATGATCTGACTGTCTGAGACGACCATGAAATCGGAGTCACCTAGTGCAG	31500 fluorescence intensity (a.u.)

Sequence	binding signal
AGATAGGTCCTTAATTTGCAATTGCCCCGCTCTGGTCTGGCGGAGTCACCTAGTGCAG	4600 fluorescence intensity (a.u.)
CAGATGGATTCTATAATTTGTTTTATTATTAGTCTACATTCGGAGTCACCTAGTGCAG	5670 fluorescence intensity (a.u.)
ATAATTTAATTTTGACCAAACTTAAAATGTCTTATAACCTCGGAGTCACCTAGTGCAG	26700 fluorescence intensity (a.u.)
ATATAATATATATTTATAGTTAACTATTATATAAATAAGACGGAGTCACCTAGTGCAG	4120 fluorescence intensity (a.u.)
GCAAGTAACTTGCTGTAATTAATTACTCATCCACTCAAAACGGAGTCACCTAGTGCAG	11500 fluorescence intensity (a.u.)
CGAACTTATAATTACTGTGTTAAGTAGTGGCCCCTACAGCCGGAGTCACCTAGTGCAG	4430 fluorescence intensity (a.u.)
CGTTGACAACAGTTAGATAGGCTACCCCAAATATTGTACTCGGAGTCACCTAGTGCAG	23800 fluorescence intensity (a.u.)
AATTAATTAACTAAATGCTTAAAGCTAGCCATGCTTTGGGCGGAGTCACCTAGTGCAG	35300 fluorescence intensity (a.u.)
GTATAGTGATTGGTTTGGTCGGAAATACATGACGTCATAACGGAGTCACCTAGTGCAG	26400 fluorescence intensity (a.u.)
TGTCTGGTGAGTTAATTAATCAGTGCTGCTCGAAGTAGACCGGAGTCACCTAGTGCAG	5930 fluorescence intensity (a.u.)
TTATCTATCAATAACACTTTTCAACACTAGATTAATATCCCGGAGTCACCTAGTGCAG	3710 fluorescence intensity (a.u.)
CACTACAAATTAGGTGGATCTCCTCTTCTGAAGATCACACCGGAGTCACCTAGTGCAG	3340 fluorescence intensity (a.u.)
TGTGAATATGATTAGCTCGTCCTACTGCGAGCTAGACACGCGGAGTCACCTAGTGCAG	12000 fluorescence intensity (a.u.)
ACAAATTAAACATAAGCAAAACTTCGTAATATTCAGTTAGCGGAGTCACCTAGTGCAG	16600 fluorescence intensity (a.u.)
TTGGATTAATTGAATAGCACGGAACGAAAGAATTCACATCCGGAGTCACCTAGTGCAG	12300 fluorescence intensity (a.u.)
CTTTTAATTTGATTTTGATTCTTCATCCACAATGCATGATCGGAGTCACCTAGTGCAG	44400 fluorescence intensity (a.u.)
ATGTTATTACATGATTAAAAGAAGCCAGTATAAGAGAGGTCGGAGTCACCTAGTGCAG	3240 fluorescence intensity (a.u.)
CGACTTGTACGATGATTGAGCAGTTGGGCATGGAATGTTACGGAGTCACCTAGTGCAG	9830 fluorescence intensity (a.u.)
CATTAACAAAATTGGAAGTAGAAGGCAAGTAATTGTGTGGCGGAGTCACCTAGTGCAG	9220 fluorescence intensity (a.u.)
GTCGAAATAACTAATTTTGCTATAATCAACCACTTTGCCACGGAGTCACCTAGTGCAG	5590 fluorescence intensity (a.u.)
GTGATTGAATTGATTGATTATGAACCATGATGATCTCATCCGGAGTCACCTAGTGCAG	43700 fluorescence intensity (a.u.)
